How the values were obtained:
[1] = system: IgG-Fc; experiment: ELISA specificity test against biotinylated control protein IgG-Fc; type: binding, human; conditions: control protein added at 8 nM
Procedure: The binding of Z variants to hPD-L1 was analyzed in ELISA assays. Half-area 96-well ELISA plates (Costar, cat. no. 3690) were coated at 4° C. overnight with 2 μg/ml of an anti-ABD goat antibody (produced in-house) diluted in coating buffer (50 mM sodium carbonate, pH 9.6; Sigma, cat. no. C3041). The antibody solution was poured off and the wells were washed in water and blocked with 100 μl of PBSC (PBS supplemented with 0.5% casein; Sigma, cat. no. C8654) for 1 to 3 h at RT. The blocking solution was discarded and 50 μl periplasmic solutions, diluted 1:1 with PBST 0.05%, were added to the wells and incubated for 1.5 to 2.5 h at RT under slow agitation. As a blank control, PBST 0.05% was added instead of a periplasmic sample. The supematants were poured off and the wells were washed 4 times with PBST 0.05%. Then, 50 μl of biotinylated hPD-L1 at a concentration of 0.32 nM in PBSC was added to each well. The plates were incubated for 1.0 h at RT followed by washes as described above. Streptavidin conjugated HRP (Thermo Scientific, cat no. N100) diluted 1:30,000 in PBSC, was added to the wells and the plates were incubated for approximately 1 h. After washing as described above, 50 μl ImmunoPure TMB substrate (Thermo Scientific, cat no. 34021) was added to the wells and the plates were treated according to the manufacturers recommendations. The absorbance at 450 nm was measured using a multi-well plate reader, Victor^3 (Perkin Elmer).
A selection of PD-L1 binding Z variants was subjected to an analysis of the response against a dilution series of biotinylated hPD-L1 following the procedure described above. The Z variants, Z13166 (SEQ ID NO:1), Z13359 (SEQ ID NO:3) and Z13398 (SEQ ID NO:4) were diluted 1:1 in PBST 0.05% and biotinylated hPD-L1 was added at a concentration of 40 nM and diluted stepwise 1:4 down to 32 μM. […] Data were analyzed using GraphPad Prism 5 and non-linear regression and EC50 values (the half maximal effective concentration) were calculated.

[2] = target: T1, hPD-L1 binding to hPD-1 (Homo sapiens, UniProt Q9NZQ7); experiment: AlphaLISA blocking assay; conditions: His6-tagged Z variants; 10 nM (Z13166, Z13398) or 8 nM (Z13178, Z13359) biotinylated hPD-L1; hPD-1 coated Acceptor beads; read-out: IC50 (M) inhibiting binding of PD-L1 to PD-1
T1 construct: purchased R&D Systems 156-B7-100 (hPD-L1); 1086-PD-050 (hPD-1)
T1 sequence (Q9NZQ7 19-239 limits assumed): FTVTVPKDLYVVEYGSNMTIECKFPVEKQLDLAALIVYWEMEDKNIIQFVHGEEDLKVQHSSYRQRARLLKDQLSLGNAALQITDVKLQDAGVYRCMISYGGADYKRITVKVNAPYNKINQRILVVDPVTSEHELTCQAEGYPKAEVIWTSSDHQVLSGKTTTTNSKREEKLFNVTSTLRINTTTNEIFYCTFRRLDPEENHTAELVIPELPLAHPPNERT
Procedure: The potential of Z variants to inhibit binding of PD-L1 to PD-1 was analyzed by AlphaLISA and recordings in an EnSpire multiplate reader 2300 (Perkin Elmer). hPD-1 (human PD-1 Fc-chimera; R&D Systems, cat. no. 1086-PD-050) was immobilized on AlphaLISA Acceptor beads (Perkin Elmer, cat. no. 6772002) according to the manufacturers recommendations. Stepwise serial dilutions 1:3 of the His-tagged Z variants Z13166 (SEQ ID NO:1) and Z13398 (SEQ ID NO:4) to final concentrations of 250 nM to 12 μM were made in a 384 plate (Perkin Elmer, cat. no. G6005350) and incubated for 1 h with 10 nM biotinylated hPD-L1 in AlphaLISA buffer (Perkin Elmer, cat. no. AL000F). hPD-1-coated Acceptor beads were added to a final concentration of 10 μg/ml and incubated for 1 h. Finally, streptavidin coated Donor beads (Perkin Elmer, cat. no. 6772002) were added to a final concentration of 40 μg/ml and incubated for 30 min. All incubations were performed at RT in the dark. The plate was analyzed in the EnSpire instrument and the IC50 values were calculated using GraphPad Prism 5. AlphaLISA analysis of the Z variants Z13178 (SEQ ID NO:2) and Z13359 (SEQ ID NO:3) was performed essentially as described above but with the following exceptions: Exception 1: stepwise serial dilutions 1:3 of Z variants to final concentrations of 250 nM to 4 μM were made in a 384SW plate (Perkin Elmer, cat. no. 6008350) and incubated for 45 min with 8 nM biotinylated hPD-L1 (R&D Systems) in AlphaLISA buffer (Perkin Elmer, cat. no. AL000F); and Exception 2: hPD-1-coated Acceptor beads were added to a final concentration of 10 μg/ml and incubated for 50 min.

IC50 [2] | Substance | response against IgG-Fc in ELISA [1]
6.2e-09 M | Z13166: PD-L1 binding Z variant, 58 amino acid residues, SEQ ID NO:1; tested as ABD fusion or His6-tagged (VDAKYAKERTVAVWEIVQLPNLTAWQKGAFINKLHDDPSQSSELLSEAKKLNDSQAPK; Engineered PD-L1 binding polypeptide) | no response
1.8e-09 M | Z13359: PD-L1 binding Z variant, 58 amino acid residues, SEQ ID NO:3; tested as ABD fusion or His6-tagged (VDAKYAKERTIAVWEIMDLPNLTSWQRGAFIDKLHDDPSQSSELLSEAKKLNDSQAPK; Engineered PD-L1 binding polypeptide) | no response
4.9e-09 M | Z13398: PD-L1 binding Z variant, 58 amino acid residues, SEQ ID NO:4; tested as ABD fusion or His6-tagged (VDAKYAKERTMATWEIVQLPNLTARQKGAFIWKLHDDPSQSSELLSEAKKLNDSQAPK; Engineered PD-L1 binding polypeptide) | no response

Source: US10364280B2, “Polypeptide” (AFFIBODY AB, priority 2015, dated 2019)
